The subject of the experiment is phosphorylated FGFR in SNU-16 cells. The experiment can be described thus: Inhibition of FGFR2 signaling in SNU-16 cells (Western blot of pFGFR). It is filed as cell-based. The note with it: antibody 10 μg/ml, 2 hours. The procedure:
Inhibition of the FGFR2 signaling pathway by the humanized antibodies was investigated. SNU-16 cells were grown in RPMI-1640 medium with 10% FBS, collected and washed twice with free medium and then seeded in 12-well plates at 1.5E6 cells/well in serum-free RPMI-1640. The plates were incubated at 37° C., 5% CO2, and 95% humidity in an incubator overnight. Anti-FGFR2b antibodies at a concentration of 10 μg/ml were added to the assay plates. Recombinant human FGF7 or FGF10 protein (10 ng/ml) in the presence of heparin (5 μg/ml) was added to the assay plates. The plates were incubated in a 37° C., 5% CO2, 95% humidity incubator for 2 hours. Following 2 hours incubation, cells were collected and washed twice with cold PBS. NP40 lysis buffer containing 1×PMSF and 1× Protease plus phosphatase inhibitors were added to the cell pellets. The mixture was pipetted up and down to suspend the pellet. The mixture was inverted gently and each placed for 10 minutes on ice, for a total of 30 minutes. The mixture was centrifuged at 12000× rpm for 10 minutes to pellet the cell debris. The supernatant was transferred to a new tube to quantify total protein concentration by BCA Kit. The protein samples were then split and stored at −80° C. for further Western blotting to detect the expression of pFGFR and total FGFR2. […]
(In general: Immunoblotting shows a protein as a band on a membrane.)

B1: BGA2311: reference antibody; binds at the N-terminus, not considered a ligand blocker; HC SEQ ID NO: 39, LC SEQ ID NO: 40 (antibody)
heavy: EVQLLESGGGLVQPGGSLRLSCAASGFTFSSYAMSWVRQAPGKGLEWVSAISGSGTSTYYADSVKGRFTISRDNSKNTLYLQMNSLRAEDTAVYYCARVRYNWNHGDWFDPWGQGTLVTVSS[human IgG1 constant region not printed]
light: QSVLTQPPSASGTPGQRVTISCSGSSSNIGNNYVSWYQQLPGTAPKLLIYENYNRPAGVPDRFSGSKSGTSASLAISGLRSEDEADYYCSSWDDSLNYWVFGGGTKLTVLGQPKAAPSVTLFPPSSEELQANKATLVCLISDFYPGAVTVAWKADSSPVKAGVETTTPSKQSNNKYAASSYLSLTPEQWKSHRSYSCQVTHEGSTVEKTVAPTECS
modifications: Synthetic: HC AA; Synthetic: LC AA
For the molecule B1, the “FGF7-induced FGFR phosphorylation” value (FGF7 10 ng/ml) was “did not result in down-regulation”. For the same molecule, the “FGF10-induced FGFR phosphorylation” value (FGF10 10 ng/ml) is “did not result in down-regulation”.

These data come from US20250222125A1, “Anti-FGFR2b Antibodies, Conjugates and Methods of Use” (BeiGene, Ltd., priority 2024, published 2025).
